Laboratory results from PubChem BioAssay AID1347073 (National Center for Advancing Translational Sciences (NCATS), 2019).
The campaign covered roughly 45,000 compounds. About 200 (0.44%) were called active. Roughly 7% stayed inconclusive and do not appear here. The call rests on the fitted dose curve; in most records, active means well fitted activation curve with a large enough effect; inconclusive means small, poorly fitted or top-dose-only effect; inactive means no such curve, though single readings can be large or run the other way. The list shows a part of the results.

Experiment: qHTS of TDP-43 Inhibitors: NCGC Sytravon Library Screen; further: 0% is about no effect; nearly all actives have a fitted effect of over 55% in size
Settings: yeast TDP-43 toxicity rescue, BacTiter-Glo growth, 24 h; series mostly up to 46.1 µM; growth rescue (activation): at the top concentration
Procedure, shortened: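 TDP-43-expressing yeast, pregrown in raffinose, seeded at OD600 0.02 in galactose medium with compound for 24 hr at 30 deg C. Growth read by BacTiter-Glo luminescence, so rescue of toxicity appears as activation.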
With `CC1(C)CC(=O)C(C(=O)/C=C/c2ccco2)C(=O)C1` the “growth rescue (activation)” value was inactive: 6.01%. For `Cc1ccc(/C=C/C(=O)Nc2cccc3cccnc23)o1`, the “growth rescue (activation)” value was inactive: 25.9%. With `Brc1ccc(C2Nc3cccc4cccc(c34)N2)cc1` the “growth rescue (activation)” value was inactive: 8.93%. With `Cc1ccc(CN2CCC(C)(Oc3cccc(Cl)c3)C2)cc1` (configuration not stated) the “growth rescue (activation)” value was inactive: -6.99%. With `COc1cc(C(=O)Nc2ccc(Cl)c([N+](=O)[O-])c2)cc(OC)c1OC` the “growth rescue (activation)” value was inactive: -12.4%. With `COCCn1c(=O)[nH]c2cc(C(=O)N3CCN(c4cccc(C)c4C)CC3)ccc2c1=O` the “growth rescue (activation)” value was inactive: 5.83%. For `CCOC(=O)C1(Cc2cccc(OC)c2)CCN(Cc2ccc3c(c2)OCCO3)CC1`, the “growth rescue (activation)” value was inactive: 4.68%. With `O=C(c1cccs1)N1CCN(Cc2ccncc2)CC1` the “growth rescue (activation)” value was inactive: -10.9%. For `Nc1ccnn1Cc1ccc(Br)s1`, the “growth rescue (activation)” value was inactive: 9.54%. In the case of `Cc1ccc(C2C(C#N)=C(N)Oc3n[nH]c(-c4cccs4)c32)cc1` (configuration not stated), the “growth rescue (activation)” value is reported as inactive: 20.3%. In the case of `CCN(CC)c1ccc(/C=N/NC(=O)CNC(=O)/C=C/c2ccco2)cc1`, the “growth rescue (activation)” value is reported as inactive: -10.3%. With `Cc1cc(C(=O)NCC(=O)OCC(=O)N(C2CCCCC2)C2CCCCC2)ccc1[N+](=O)[O-]` the “growth rescue (activation)” value was inactive: 10.1%. For `Cn1c(=O)c2c(nc(NCc3cccnc3)n2Cc2ccc(Cl)cc2)n(C)c1=O`, the “growth rescue (activation)” value was inactive: 0.844%. For `COc1ccc(/C=C/c2n[nH]c(=O)c(C#N)c2C)cc1`, the “growth rescue (activation)” value was inactive: 6.29%. For `CN(C)S(=O)(=O)c1ccc(NC(=S)NC(=O)c2cccs2)cc1`, the “growth rescue (activation)” value was inactive: -6.89%. For `C[C@]12CC[C@H](O)CC1=C[C@H](O)C1C2CC[C@@]2(C)C1CC[C@@]2(O)C#Cc1ccc(CN)cc1` (some centres not stated), the “growth rescue (activation)” value was inactive: 2.44%. For `Cc1ccccc1CSc1nnc(-c2ccccc2)c(=O)[nH]1`, the “growth rescue (activation)” value was inactive: -8.53%. For `O=C(CONS(=O)(=O)c1ccc(Cl)cc1)NCCNc1ncc(C(F)(F)F)cc1Cl`, the “growth rescue (activation)” value was inactive: 3.62%. In the case of `Cc1cc(N2CCN(C)CC2)nc(=S)[nH]1`, the “growth rescue (activation)” value is reported as inactive: 8.64%. In the case of `CCN(C(=O)CSc1nnc(-c2c[nH]c3ccccc23)o1)C1CCS(=O)(=O)C1` (configuration not stated), the “growth rescue (activation)” value is reported as inactive: -3.26%. For `CN(CC(=O)Nc1ccccc1N1CCOCC1)CC(=O)Nc1ccc(F)c(F)c1F`, the “growth rescue (activation)” value was inactive: -9.98%. With `O=C(CN1C(=O)N/C(=C\c2ccccc2OCc2ccc(C(=O)O)cc2)C1=O)Nc1ccccc1F` the “growth rescue (activation)” value was inactive: -17.8%. For `O=C(CCCc1nc(-c2ccccc2)no1)NC1CCCCC1`, the “growth rescue (activation)” value was inactive: -3.16%. In the case of `COC(=O)Nc1nnc(/C=C/c2ccccc2)s1`, the “growth rescue (activation)” value is reported as inactive: -28.1%. With `O=C(CCc1ccccc1)Nc1ccc(N2CCCCC2)cc1` the “growth rescue (activation)” value was inactive: 4.02%. For `COc1ccccc1/C=C(\NC(=O)c1ccccc1)C(=O)NCc1ccco1`, the “growth rescue (activation)” value was inactive: 17.1%. With `Cc1ccc(S(=O)(=O)N2CCCCC2)cc1NC(=O)COc1ccccc1F` the “growth rescue (activation)” value was inactive: 0.961%. In the case of `Cc1ccc(C2=NNC3(CCOC(C)(C)C3)S2)cc1` (configuration not stated), the “growth rescue (activation)” value is reported as inactive: 14%. For `COc1cc(-c2nc3ccccn3c2/N=C/c2ccc(F)cc2)ccc1O`, the “growth rescue (activation)” value was inactive: -2.56%. In the case of `CCCCOC(=O)C1C2C=C[C@]3(CN(CCCOC)C(=O)[C@H]13)O2` (some centres not stated), the “growth rescue (activation)” value is reported as inactive: 20.6%. In the case of `Cc1ccc(-n2cnc3sc(C)c(C)c3c2=O)cc1`, the “growth rescue (activation)” value is reported as inactive: 3.06%. For `N#Cc1c(-c2ccccc2)cc2nc3ccccc3n2c1N`, the “growth rescue (activation)” value was inactive: -12.7%. With `CN(C)S(=O)(=O)c1cccc(NC(=O)COC(=O)/C=C/c2ccc3c(c2)OCO3)c1` the “growth rescue (activation)” value was inactive: -7.68%. For `NS(=O)(=O)c1ccc(O)c(NC(=O)c2ccc([N+](=O)[O-])cc2)c1`, the “growth rescue (activation)” value was inactive: 11.5%. With `COc1ccc(N2CC(NC(=O)COc3ccc(F)cc3)CC2=O)cc1OC` (configuration not stated) the “growth rescue (activation)” value was inactive: 5.43%. For `O=C(CSCc1ccc(Cl)c(Cl)c1)Nc1c[nH]c(=O)[nH]c1=O`, the “growth rescue (activation)” value was inactive: 6.48%. In the case of `c1cn(CCCNc2ncnc3sc4c(c23)CCC4)cn1`, the “growth rescue (activation)” value is reported as inactive: 13.6%. With `COc1ccc(-c2cc(C(=O)Nc3c(C)n(C)n(-c4ccccc4)c3=O)c3ccccc3n2)cc1` the “growth rescue (activation)” value was inactive: 3.55%. With `CCCCC(=O)Nc1cccc(NC(=S)NC(=O)Cc2ccccc2)c1` the “growth rescue (activation)” value was inactive: 8.41%. For `Cc1ccsc1/C=N/NC(=O)c1ccc2nc[nH]c2c1`, the “growth rescue (activation)” value was inactive: 12.9%. With `Cc1onc(-c2ccccc2)c1C(=O)Nc1nnc(CC(C)(C)C)s1` the “growth rescue (activation)” value was inactive: 7.05%. For `Cc1ccc(S(=O)(=O)c2nc(Cc3ccccc3)oc2N2CCOCC2)cc1`, the “growth rescue (activation)” value was inactive: -0.483%. With `CC(=O)Nc1ccc(C(=O)N(C)c2ccccc2)cc1` the “growth rescue (activation)” value was inactive: 1.49%. In the case of `COc1ccc(C(=O)Nn2c(SCc3ccc([N+](=O)[O-])cc3)nc3ccccc3c2=O)cc1`, the “growth rescue (activation)” value is reported as inactive: 13.4%. With `COc1cc(C(=O)/C=C/c2cccnc2)ccc1O` the “growth rescue (activation)” value was inactive: -8.25%. With `Cc1ccc(Cl)cc1N1CCN(C(=O)c2ccc(NS(=O)(=O)c3c(C)noc3C)cc2)CC1` the “growth rescue (activation)” value was inactive: 12.2%. In the case of `CN1CCN(/N=C/c2ccc(Br)cc2)CC1`, the “growth rescue (activation)” value is reported as inactive: -7.61%. In the case of `COc1ccc(C(=O)C2CCCN(C(=O)c3ccoc3C)C2)cc1F` (configuration not stated), the “growth rescue (activation)” value is reported as inactive: 16.7%. For `CCOC(=O)c1sc(NC(=O)CSc2nnnn2-c2ccc(C)cc2C)nc1C`, the “growth rescue (activation)” value was inactive: 7.47%. For `CCOc1ccc(-c2cc(CCCC(=O)NCCC(C)C)no2)cc1`, the “growth rescue (activation)” value was inactive: 26%. With `N#CC1=C(N)OC2=C(C(=O)CC(c3ccccc3)C2)C1c1cccnc1` (configuration not stated) the “growth rescue (activation)” value was inactive: 10.7%. In the case of `CC(=O)Nc1ccc2c3c(cccc13)C(=O)N(c1ccccc1)C2=O`, the “growth rescue (activation)” value is reported as inactive: 10.4%. In the case of `CC(=O)N1CCN(CC(=O)Nc2cccc(S(=O)(=O)N3CCCCC3)c2)CC1`, the “growth rescue (activation)” value is reported as inactive: 7.72%. With `N#CCCN1CCN(S(=O)(=O)c2ccc3c(c2)OCCCO3)CC1` the “growth rescue (activation)” value was inactive: -0.29%. In the case of `COc1ccc(C)cc1NC(=O)C(c1ccccc1)N1CCN(CC(=O)N2CCOCC2)CC1` (configuration not stated), the “growth rescue (activation)” value is reported as inactive: 20.2%. In the case of `CCn1c(CN2CCN(C(c3ccccc3)c3ccccc3)CC2)nc2c1c(=O)n(C)c(=O)n2C`, the “growth rescue (activation)” value is reported as inactive: -8.57%. For `CN(C)c1cccc(C(=O)OCC(=O)NC(=O)NCc2ccccc2)c1`, the “growth rescue (activation)” value was inactive: 8.6%. With `CCNC(=O)C1(C)CCCN(C(=O)c2sc(-c3ccccc3)nc2C)C1` (configuration not stated) the “growth rescue (activation)” value was inactive: 7.77%. With `CN(CC(=O)Nc1ccc(Cl)cc1F)C1=NS(=O)(=O)c2ccccc21` the “growth rescue (activation)” value was inactive: 4.09%. In the case of `CC1(C(=O)NS(=O)(=O)c2ccc(Cl)cc2)CCN1C(=O)CCc1ccc(Cl)cc1Cl` (configuration not stated), the “growth rescue (activation)” value is reported as inactive: 15.2%. In the case of `CCCS(=O)(=O)NC(=O)C1(C)CCCN(C(=O)COc2ccc(Cl)cc2Cl)C1` (configuration not stated), the “growth rescue (activation)” value is reported as inactive: -7.48%. With `COc1ccccc1CNc1nc(NCc2ccccc2F)c2sccc2n1` the “growth rescue (activation)” value was inactive: 7.29%. In the case of `Cn1cc(/C=C/c2cc[n+](C)cc2)c2cc(Cl)ccc21`, the “growth rescue (activation)” value is reported as inactive: -23.6%. With `Cc1ccc(S(=O)(=O)Nc2ccc(NC(=O)Nc3cccc(C(F)(F)F)c3)cc2)cc1` the “growth rescue (activation)” value was inactive: -8.73%. In the case of `CN(C)c1ccc(C2C3=C(CCCC3=O)OC3=C2C(=O)CCC3)cc1`, the “growth rescue (activation)” value is reported as inactive: 5.32%. For `CC1(C(=O)NCC2CCOCC2)Cc2c(-c3cccc(C(N)=O)c3)ccnc2O1` (configuration not stated), the “growth rescue (activation)” value was inactive: -11.3%. For `Cc1nc2sc(C(=O)O)c(N)c2c2c1COC(C)(C)C2`, the “growth rescue (activation)” value was inactive: 29.1%.
